# Reference: the supplement of paper PMC8728848
# Some of the results follow.
# Columns and labels:
# Test in all cases: glycan array binding signal (z-score within array); higher = stronger binding
# Settings in all cases: glycan notation: IUPAC condensed, linker removed
# [1] = target: Neu5Ac(a2-6)GlcNAc(b1-4)GlcNAc(b1-4)GlcNAc
# Procedure, shortened: (§1)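 Glycan array data were curated from 3228 arrays in the Consortium for Functional Glycomics database and kept only where the protein sequence was available. Glycan names were converted to IUPAC-condensed notation, and columns mapping to the same glycan were averaged. The binding signal is a within-array Z-score, averaged across arrays of the same protein sequence at different concentrations or buffers and across linkers. Negative Z-scores can be read as non-binding.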
# Neu5Ac(a2-8)Neu5Ac = target: Neu5Ac(a2-8)Neu5Ac
# Procedure, shortened: as §1
# [2] = target: Neu5Ac(a2-8)Neu5Ac(a2-3)Gal(b1-3)GalNAc(b1-4)[Neu5Ac(a2-3)]Gal(b1-4)Glc
# Procedure, shortened: as §1
# [3] = target: Neu5Ac(a2-8)Neu5Ac(a2-3)Gal(b1-3)GalNAc(b1-4)[Neu5Ac(a2-8)Neu5Ac(a2-3)]Gal(b1-4)Glc
# Procedure, shortened: as §1
# [4] = target: Neu5Ac(a2-8)Neu5Ac(a2-3)Gal(b1-4)Glc
# Procedure, shortened: as §1
# [5] = target: Neu5Ac(a2-8)Neu5Ac(a2-3)Gal(b1-4)GlcNAc
# Procedure, shortened: as §1
# [6] = target: Neu5Ac(a2-8)Neu5Ac(a2-3)[Gal(b1-3)GalNAc(b1-4)]Gal(b1-4)Glc
# Procedure, shortened: as §1
# [7] = target: Neu5Ac(a2-8)Neu5Ac(a2-3)[GalNAc(b1-4)]Gal(b1-4)Glc
# Procedure, shortened: as §1
# [8] = target: Neu5Ac(a2-8)Neu5Ac(a2-8)Neu5Ac
# Procedure, shortened: as §1
# [9] = target: Neu5Ac(a2-8)Neu5Ac(a2-8)Neu5Ac(a2-3)Gal(b1-4)Glc
# Procedure, shortened: as §1
# [10] = target: Neu5Ac(a2-8)Neu5Ac(a2-8)Neu5Ac(a2-3)[Gal(b1-3)GalNAc(b1-4)]Gal(b1-4)Glc
# Procedure, shortened: as §1
# [11] = target: Neu5Ac(a2-8)Neu5Ac(a2-8)Neu5Ac(a2-3)[GalNAc(b1-4)]Gal(b1-4)Glc
# Procedure, shortened: as §1
# [12] = target: Neu5Ac(a2-8)Neu5Ac(a2-8)Neu5Ac(a2-8)Neu5Ac(a2-3)[GalNAc(b1-4)]Gal(b1-4)Glc
# Procedure, shortened: as §1
# [13] = target: Neu5Ac(a2-8)Neu5Gc(a2-3)Gal(b1-4)GlcNAc
# Procedure, shortened: as §1
# [14] = target: Neu5Ac(b2-6)Gal(b1-4)GlcNAc
# Procedure, shortened: as §1
# Neu5Ac(b2-6)GalNAc = target: Neu5Ac(b2-6)GalNAc
# Procedure, shortened: as §1
# [15] = target: Neu5Ac9Ac(a2-3)Gal(b1-3)GlcNAc
# Procedure, shortened: as §1
# [16] = target: Neu5Ac9Ac(a2-3)Gal(b1-4)GlcNAc
# Procedure, shortened: as §1
# [17] = target: Neu5Ac9Ac(a2-6)Gal(b1-4)GlcNAc
# Procedure, shortened: as §1
# [18] = target: Neu5Gc(a2-3)Gal(b1-3)GlcNAc
# Procedure, shortened: as §1
# [19] = target: Neu5Gc(a2-3)Gal(b1-3)[Fuc(a1-4)]GlcNAc
# Procedure, shortened: as §1
# Neu5Gc(a2-3)Gal(b1-4)Glc = target: Neu5Gc(a2-3)Gal(b1-4)Glc
# Procedure, shortened: as §1
# [20] = target: Neu5Gc(a2-3)Gal(b1-4)GlcNAc
# Procedure, shortened: as §1
# [21] = target: Neu5Gc(a2-3)Gal(b1-4)GlcNAc(b1-3)Gal(b1-4)GlcNAc(b1-2)Man(a1-3)[Neu5Gc(a2-3)Gal(b1-4)GlcNAc(b1-3)Gal(b1-4)GlcNAc(b1-2)Man(a1-6)]Man(b1-4)GlcNAc(b1-4)GlcNAc
# Procedure, shortened: as §1
# [22] = target: Neu5Gc(a2-3)Gal(b1-4)[Fuc(a1-3)]GlcNAc
# Procedure, shortened: as §1
# [23] = target: Neu5Gc(a2-6)Gal(b1-4)GlcNAc
# Procedure, shortened: as §1
# Neu5Gc(a2-6)GalNAc = target: Neu5Gc(a2-6)GalNAc
# Procedure, shortened: as §1
# [24] = target: Neu5Gc(a2-8)Neu5Ac(a2-3)Gal(b1-4)GlcNAc
# Procedure, shortened: as §1
# [25] = target: Neu5Gc(a2-8)Neu5Gc(a2-3)Gal(b1-4)GlcNAc
# Procedure, shortened: as §1
# [26] = target: Neu5Gc(a2-8)Neu5Gc(a2-3)Gal(b1-4)GlcNAc(b1-3)Gal(b1-4)GlcNAc
# Procedure, shortened: as §1
# [27] = target: Neu5Gc(a2-8)Neu5Gc(a2-6)Gal(b1-4)GlcNAc
# Procedure, shortened: as §1
# [28] = target: Neu5Gc(b2-6)Gal(b1-4)GlcNAc
# Procedure, shortened: as §1
binder,measurement,setting,value
"Arath Fbox (Arabidopsis thaliana), NP_178341.1 (protein) EFTWGRKRRVKSESSPFDSFPEDCISYIISFTNPRDACVAATVSKTFESTVKSDIIWEKFLPADYESLIPPSRVFSSKKELYFSLCNDPVLFDDDKKSVWLEKASGKRCLMLSAMNLSIIWGDNPQYWQWIPIPESRFEKVAKLRDVCWFEIRGRTNTRVLSPRTRYSAYIVFKGVDKCYGFQNVAIEAAVGVVGQEPSRRLICFSEAIRRGRRNVVKPKQREDGWMEIELGEFFNDGGIMDNDEIEMSALETKQLNRKCGLIIQGIEIRPAKILAAAAASFLEQKLISEEDLNSAVDHHHHHH",glycan array binding signal (z-score),[1],-0.754
same,glycan array binding signal (z-score),Neu5Ac(a2-8)Neu5Ac,-0.615
same,glycan array binding signal (z-score),[2],-0.685
same,glycan array binding signal (z-score),[3],0.378
same,glycan array binding signal (z-score),[4],-0.582
same,glycan array binding signal (z-score),[5],-0.583
same,glycan array binding signal (z-score),[6],0.298
same,glycan array binding signal (z-score),[7],-0.467
same,glycan array binding signal (z-score),[8],-0.611
same,glycan array binding signal (z-score),[9],-0.675
same,glycan array binding signal (z-score),[10],-0.683
same,glycan array binding signal (z-score),[11],-0.245
same,glycan array binding signal (z-score),[12],0.574
same,glycan array binding signal (z-score),[13],-0.23
same,glycan array binding signal (z-score),[14],0.732
same,glycan array binding signal (z-score),Neu5Ac(b2-6)GalNAc,-0.377
same,glycan array binding signal (z-score),[15],0.991
same,glycan array binding signal (z-score),[16],-0.721
same,glycan array binding signal (z-score),[17],-0.681
same,glycan array binding signal (z-score),[18],-0.022
same,glycan array binding signal (z-score),[19],-0.678
same,glycan array binding signal (z-score),Neu5Gc(a2-3)Gal(b1-4)Glc,0.181
same,glycan array binding signal (z-score),[20],-0.647
same,glycan array binding signal (z-score),[21],1.17
same,glycan array binding signal (z-score),[22],0.522
same,glycan array binding signal (z-score),[23],2.49
same,glycan array binding signal (z-score),Neu5Gc(a2-6)GalNAc,1.35
same,glycan array binding signal (z-score),[24],-0.42
same,glycan array binding signal (z-score),[25],-0.063
same,glycan array binding signal (z-score),[26],-0.651
same,glycan array binding signal (z-score),[27],-0.528
same,glycan array binding signal (z-score),[28],2.42
